{
  "source": "PubChem BioAssay AID588855",
  "about": "(National Center for Advancing Translational Sciences (NCATS), 2011)",
  "note": "Hit rate of the full screen: of about 410,000 compounds, about 5,000 (1.2%) were called active. This list was built around the results that the source calls inconclusive (neither active nor inactive); the mix of calls is not that of the screen. Calls follow the shape of the dose curve; as a rule, active = well fitted inhibition curve with a large enough effect; inconclusive = small, poorly fitted or top-dose-only effect; inactive = no such curve, though single readings can be large or run the other way. A potency beside an inconclusive call is a rough fit, not a confirmed value. % is scaled to controls: 0 for no effect and ±100 for the full control effect; potency is read from the fitted curve at half-maximal effect; tags tell the direction and shape of the fitted curve.",
  "data": [
    {"test": "qHTS for Inhibitors of TGF-b; also: nearly all actives have a fitted effect of over 65% in size", "details": "HepG2 CAGA-GFP TGF-b/SMAD3 reporter, GFP fluorescence, 18 h, TGF-beta stimulated, 500 pg/mL final; series mostly up to 46.1 µM; activity, negative = inhibition: at the top concentration", "how_it_was_run": "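First, reporter cells (HEPG2 CAGA-GFP) rested 2 h at 37 degrees C. Next, compounds were pinned in and TGF-beta added to 500 pg/mL final. After 18 h, GFP was imaged per cell and summed per well.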", "values": [
      {"smiles": "Cc1cc(Nc2ccccc2)nc(-c2ccccc2O)n1", "Potency": "inconclusive: 0.708 µM [inhibitor, full curve, poor fit]"},
      {"smiles": "CC12CCC(C(=O)N(NC(=O)c3ccccc3O)C1=O)C2(C)C", "note": "(stereo not given)", "Potency": "inconclusive: 22.4 µM [inhibitor, single point]"},
      {"smiles": "O=C(c1ccco1)N1CCN(C(=S)Nc2ccc(F)c(Cl)c2)CC1", "activity, negative = inhibition": "inactive: -16.3%"},
      {"smiles": "CCOC(=O)C1CCN(C(=O)c2ccc(OCC(=O)Nc3cccc(C(F)(F)F)c3)c(OC)c2)CC1", "Potency": "inconclusive: 22.4 µM [inhibitor, single point]"},
      {"smiles": "COc1ccc(OC)c(NC(=O)C(=O)N/N=C/c2ccccc2[N+](=O)[O-])c1", "Potency": "inconclusive: 0.178 µM [inhibitor, full curve, poor fit]"},
      {"smiles": "CCc1nc2ccc(C(=O)NCCOc3ccc(OC)cc3)cn2c1N(C)CCCc1ccccc1", "Potency": "active: 14.1 µM"},
      {"smiles": "Cc1ccc(CN=c2c([N+](=O)[O-])nn(-c3ccc4c(c3)OCCO4)n2O)cc1", "Potency": "inconclusive: 35.5 µM [inhibitor, single point]"},
      {"smiles": "CCNC(=O)C1(C)CCN(C(=O)c2cccc3ccccc23)C1", "note": "(stereo not given)", "activity, negative = inhibition": "inactive: -0.274%"},
      {"smiles": "CCN(CC)CCNC(=S)NC(=O)c1cn(-c2ccccc2)nc1-c1ccc(OC)cc1", "activity, negative = inhibition": "inactive: -25.5%"},
      {"smiles": "O=S(=O)(/N=S1\\CC=CCN1S(=O)(=O)c1ccccc1)c1ccccc1", "note": "(stereo not given)", "Potency": "inconclusive: 22.4 µM [inhibitor, single point]"},
      {"smiles": "Nc1cc(-c2cccc(Br)c2)nn1Cc1ccccc1", "activity, negative = inhibition": "inactive: 4%"},
      {"smiles": "CCOC(=O)C1CCN(C(c2ccc(SC)cc2)c2c(O)cc(C)n(Cc3ccco3)c2=O)CC1", "note": "(stereo not given)", "activity, negative = inhibition": "inactive: 24.6%"},
      {"smiles": "CC1=CC(=O)N(c2cccc(C(F)(F)F)c2)C1c1ccc(Cl)cc1", "note": "(stereo not given)", "activity, negative = inhibition": "inactive: -12%"},
      {"smiles": "CCc1cc(Cn2nc(-c3ccccc3)cc2C(=O)NCc2ccccc2OC)on1", "Potency": "inconclusive: 3.16 µM [inhibitor, full curve]"},
      {"smiles": "CCCCN1CC(COCc2ccccc2)Oc2ccccc2S1(=O)=O", "note": "(stereo not given)", "Potency": "inconclusive: 28.2 µM [inhibitor, single point]"},
      {"smiles": "Cc1sc2nc(C(C)C)nc(SCC(=O)N3CCN(C(=O)c4ccco4)CC3)c2c1C", "activity, negative = inhibition": "inactive: -49.5%"},
      {"smiles": "Cc1nc2nncn2c(Nc2ccccc2)c1C", "Potency": "inconclusive: 7.08 µM [inhibitor, full curve]"},
      {"smiles": "Cc1cc(C)cc(NC(=S)/N=C(\\N)Nc2nc(C)c3ccccc3n2)c1", "Potency": "inconclusive: 11.2 µM [inhibitor, single point]"},
      {"smiles": "Cc1nc2c(-c3ccc(F)cc3)cnn2c2c1CCC2", "activity, negative = inhibition": "inactive: 20.7%"},
      {"smiles": "CCc1nn2c(=O)cc(COC(=O)c3cccc(NC(=O)c4cccs4)c3)nc2s1", "activity, negative = inhibition": "inactive: -23.3%"},
      {"smiles": "CCOC(=O)c1c(-c2ccccc2)csc1NC(=O)c1cc(=O)c2ccc(C)cc2o1", "Potency": "inconclusive: 35.5 µM [inhibitor, single point]"},
      {"smiles": "Cc1ccc(-n2nc3c(c2NC(=O)c2c(-c4ccccc4Cl)noc2C)CS(=O)(=O)C3)c(C)c1", "Potency": "inconclusive: 5.01 µM [inhibitor, single point]"},
      {"smiles": "CCc1cc(Br)ccc1NC(=S)NCCc1ccccc1", "Potency": "inconclusive: 25.1 µM [inhibitor, single point]"},
      {"smiles": "COc1ccc(OC)c(CNC(=O)c2ccc(C)c(NC(=O)c3nsc4ccccc34)c2)c1", "activity, negative = inhibition": "inactive: -26%"},
      {"smiles": "NS(=O)(=O)c1cccc(NC(=O)COc2ccc([N+](=O)[O-])cc2)c1", "activity, negative = inhibition": "inactive: -0.0755%"},
      {"smiles": "C[C@H](CO)N1C[C@H](C)[C@H](CN(C)C(=O)Nc2cccc3ccccc23)OCc2cnnn2CCCC1=O", "Potency": "inconclusive: 35.5 µM [inhibitor, single point]"},
      {"smiles": "CC(C)(C)Nc1c2ccccc2nc2ccccc12", "Potency": "inconclusive: 25.1 µM [inhibitor, single point]"},
      {"smiles": "Cc1ccc(Cn2c(CNS(=O)(=O)c3cccc([N+](=O)[O-])c3)nc3cccnc32)cc1", "Potency": "inconclusive: 35.5 µM [inhibitor, single point]"},
      {"smiles": "Cc1ccc(/C=C2\\CCC(C3CCCC3)C2=O)cc1", "note": "(stereo not given)", "activity, negative = inhibition": "inactive: -14.8%"},
      {"smiles": "C#CCNC(=O)C1=C[C@@H](c2ccc(Br)cc2)C[C@@H](OCCCCO)O1", "activity, negative = inhibition": "inactive: -2.37%"},
      {"smiles": "CCC12CN(C(=O)c3ccc(C)cc3)CC(CC)(CN(C(=O)c3ccc(C)cc3)C1)C2=O", "activity, negative = inhibition": "inactive: 0.641%"},
      {"smiles": "Cc1ccc(NC(=S)/N=C(\\N)Nc2nc(C)c3cc(C)ccc3n2)c(C)c1", "Potency": "active: 10 µM"},
      {"smiles": "C#CCn1c(=O)cc(C)c2ccccc21", "activity, negative = inhibition": "inactive: 7.25%"},
      {"smiles": "Cc1ccc(COCCN2CCN(S(=O)(=O)c3ccc(C)cc3)CCC2=O)cc1", "Potency": "inconclusive: 12.6 µM [inhibitor, partial curve, poor fit]"},
      {"smiles": "CCC/C(O)=C1\\C(=O)CCCC1=NCCc1c(C)[nH]c2ccccc12", "activity, negative = inhibition": "inactive: -9.78%"},
      {"smiles": "COc1cccc(CNC(=O)CCc2c(C)nc3c(c2C)c(=O)n(C)c(=O)n3C)c1", "Potency": "inconclusive: 6.31 µM [inhibitor, single point]"},
      {"smiles": "CC(Nc1nc(-c2ccc(F)cc2)cs1)c1nc2cc(Cl)c(N3CCCCC3)cc2n1CCCO", "note": "(stereo not given)", "Potency": "inconclusive: 22.4 µM [inhibitor, single point]"},
      {"smiles": "COc1ccc(C2=Nc3ccccc3OC2)cc1", "Potency": "inconclusive: 0.355 µM [inhibitor, full curve, poor fit]"},
      {"smiles": "NC(=O)Nc1ccc(/C=C2\\C=Cc3ccccc32)cc1", "Potency": "inconclusive: 15.8 µM [inhibitor, single point]"},
      {"smiles": "CC(=O)N1C[C@H]2CON(C)[C@H]2C[C@H]1c1cccc(-c2cc(Cl)cc(Cl)c2)c1", "activity, negative = inhibition": "inactive: -19.3%"},
      {"smiles": "CSc1nc(C)c(C(=O)Nc2ccccc2)c(-c2ccco2)c1C#N", "Potency": "inconclusive: 22.4 µM [inhibitor, single point]"},
      {"smiles": "CC(=O)c1ccccc1OCC(O)CN1CCN(CCN2C(=O)c3cccc4cccc(c34)C2=O)CC1", "note": "(stereo not given)", "Potency": "inconclusive: 12.6 µM [inhibitor, partial curve, poor fit]"},
      {"smiles": "CCOC(=O)N1CCN(C(=O)COc2cccc3c2CCN(Cc2cccc(C)c2)C3=O)CC1", "Potency": "inconclusive: 7.94 µM [inhibitor, partial curve]"},
      {"smiles": "O=C(NCC(c1ccc2c(c1)OCO2)N1CCN(c2ccc(F)cc2)CC1)c1cccc([N+](=O)[O-])c1", "note": "(stereo not given)", "Potency": "inconclusive: 1.41 µM [inhibitor, full curve]"},
      {"smiles": "Cc1c(C(=O)NCC2CCCO2)oc2ccc3c(c12)C(=O)CC(C)(C)O3", "note": "(stereo not given)", "activity, negative = inhibition": "inactive: 2.78%"}
    ]}
  ]
}
